Source: patent publication US20180127478A1 (published 2018)

Target: T1, shFcRn (ACROBiosystems) (human, UniProt P55899 part only; P61769 part only)
T1 construct: It was amine-coupled to a CM5 chip at 9000 RU
Assay: SPR (Biacore T100), shFcRn immobilised on a CM5 chip, pH 6.0, steady-state affinity model
Excerpt: A control flow cell was blocked with ethanolamine for reference subtraction.

- Kd: 400 nM
B1: hGH-sc(Fc)2 with (G4S)13 linker (Fc fusion)
chain: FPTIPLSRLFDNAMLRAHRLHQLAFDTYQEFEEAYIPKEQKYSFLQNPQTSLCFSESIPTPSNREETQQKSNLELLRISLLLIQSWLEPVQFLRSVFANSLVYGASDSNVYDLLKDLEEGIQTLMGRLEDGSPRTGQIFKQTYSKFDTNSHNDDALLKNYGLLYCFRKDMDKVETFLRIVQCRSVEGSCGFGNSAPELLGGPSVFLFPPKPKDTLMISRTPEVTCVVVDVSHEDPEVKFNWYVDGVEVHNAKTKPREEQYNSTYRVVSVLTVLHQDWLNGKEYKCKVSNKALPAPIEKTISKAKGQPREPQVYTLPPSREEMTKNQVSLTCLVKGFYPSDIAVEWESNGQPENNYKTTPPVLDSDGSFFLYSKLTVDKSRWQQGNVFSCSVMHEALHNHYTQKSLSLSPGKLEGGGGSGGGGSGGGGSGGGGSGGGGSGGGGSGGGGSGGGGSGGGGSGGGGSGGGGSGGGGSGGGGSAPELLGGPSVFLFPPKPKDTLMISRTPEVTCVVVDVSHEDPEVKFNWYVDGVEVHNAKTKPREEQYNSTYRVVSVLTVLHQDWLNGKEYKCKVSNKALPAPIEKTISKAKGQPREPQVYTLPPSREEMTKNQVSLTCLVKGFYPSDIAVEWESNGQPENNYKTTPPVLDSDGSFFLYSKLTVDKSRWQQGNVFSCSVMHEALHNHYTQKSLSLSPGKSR
modifications: N-glycosylation on the CH2 domains (HEK293 expression)
notes: The hGH-Fc junction (EcoRI cloning site) is printed as a drawing, so any extra junction residues are unknown; Produced in HEK293 cells and purified on Protein A; also called sc(Fc)2 fusion protein
